In ChEMBL document CHEMBL4888484, “Replenishing the malaria drug discovery pipeline: Screening and hit evaluation of the MMV Hit Generation Library 1 (HGL1) against asexual blood stage Plasmodium falciparum ,using a nano luciferase reporter read-out” (2022):
Hit rate of the full screen: of about 4,800 compounds, about 410 (8.5%) showed an effect of 50% or more. The list shows a part of the results.

These compounds were tested on Plasmodium falciparum (assay: Confirmatory screen in NF54 pLDH assay, in single point, at 2uM, 72h). Conditions: timepoint 72 hour.
Format: functional, Erythrocyte

Row | SMILES | % Inhibition [%]
1 | CC(C)(C)C1CCC(Nc2cccc(Cl)c2)(c2nnnn2[C@H](/C=C\c2ccc(Cl)cc2Cl)C(C)(C)C)CC1 (some centres not stated) | -13
2 | COc1cc(C(=O)Nc2nnc(-c3ccc(C)s3)[nH]2)on1 | 9
3 | COc1ccc2c(c1)OC13CCN(C)CC1C2C(C(=O)c1ccccc1OC)C(=O)N3 (configuration not stated) | 10
4 | Nc1ccc2c(N3CCC(C4OCCO4)CC3)ncnc2n1 | 5
5 | Cc1ccnc(N2CCN(S(=O)(=O)Cc3ccon3)CC2)c1 | 15
6 | CC#CCCC(=O)Nc1ccc(OC)cc1 | 4
7 | N#Cc1ccc(NCc2nccc(N)n2)nc1 | 13
8 | Cn1ncc(NC(=O)Cn2nc(C(F)F)c(Cl)c2C2CC2)c1C(=O)N1CCCCC1 | 5
9 | CCN1CCN(c2cccc(NC(=O)c3ccc4[nH]c5ccccc5c(=O)c4c3)c2)CC1 | 100
10 | Cc1c(N2C(=O)c3ccc(Cl)cc3C2=O)c(=O)n(-c2ccccc2)n1C | -2
11 | COCCNC(=O)c1ccc(-n2nc(-c3nnc(C)o3)c(C)c2-c2ccc(OC)cc2)cc1 | 16
12 | O=S(=O)(Cc1ccccc1)N1CCC(OCCOc2ccc(F)cc2)CC1 | 11
13 | O=C(COc1ccc(Cl)cc1)n1c2ccccc2c2ccccc21 | 7
14 | COc1ccc(NC(=O)CCC(=O)c2ccc3c(c2)OCCCO3)cc1 | -9
15 | C[C@@H](CNC(=O)c1ccncc1F)c1nc2ccccc2s1 | 7
16 | O=C(c1nnn(-c2ccccc2Cl)c1-c1cccnc1)N1CCC(Cc2ccccc2)CC1 | -8
17 | CCC(C)NCC(O)Cn1c(-c2ccccc2)c(-c2ccccc2)c2cc(C)ccc21 (configuration not stated) | 92
18 | COc1ccc([C@H]2[C@H](C(=O)NCc3ccc(C)o3)CCC(=O)N2C)cc1 | -20
19 | O=C1NC(=O)C2(CCN(C(=O)C3CC4CCC3C4)CC2)N1 (configuration not stated) | 9
20 | COc1ccc(-n2nnnc2[C@@H](NCCc2c[nH]c3ccccc23)C(C)C)cc1 | 7
21 | O=C(CCc1ccccc1)N[C@@H](c1ccccc1)c1ccc2c3c(cccc13)CC2 | -21
22 | Cn1ncn(CC(=O)c2cccc(Cl)c2Cl)c1=O | -14
23 | CC(=O)N[C@@H]1CN(Cc2nccn2Cc2ccccc2)C[C@H]1c1nccn1C | 12
24 | O=C(NCc1cccc(C(F)(F)F)c1)c1csc(C(=O)NC2CCCC2)n1 | -3
25 | O=C1O[C@H](N2CCc3ccccc3C2)c2ccccc21 | 5
26 | O=C(NC1CCCCC1)c1nn(-c2ccccc2)c(=O)c2ccccc12 | -12

Row | SMILES | % Inhibition [%]
27 | Cc1nc(NC(=O)N2CCOCC2CC(O)c2cccs2)sc1C (configuration not stated) | 4
28 | COc1ccc(-c2noc(Cn3c(=O)c4ccccc4n(CC(=O)Nc4cc(C)ccc4C)c3=O)n2)cc1 | 3
29 | COc1ccccc1CN(C(=O)c1ccc(C)cc1)c1ccc(CC(=O)NCCN2CCCCC2)cc1 | 40
30 | O=c1c2ccccc2ncn1S(=O)(=O)c1ccc(Cl)cc1 | 17
31 | Cc1c(CCNC(=O)NCC2CC23CCc2ccccc23)cnn1C (configuration not stated) | 3
32 | Cc1cc(=O)[nH]c(-n2nc(C3CC3)cc2NC(=O)c2ccc(C(C)(C)C)cc2)n1 | 52
33 | COc1cc(NCC(=O)NC(N)=O)cc(OC)c1OC | -9
34 | CCn1ncc(CN2CC[C@@H]3C(=O)NCCCCCCN(Cc4ccncc4)[C@@H]3C2)c1C | 35
35 | COc1ccc(N(C(=O)c2ccccc2)C2CC(C)N(C(=O)c3ccccc3)c3cc(OC)c(OC)cc32)cc1OC (configuration not stated) | 13
36 | CC[N+](C)(CC)CCOc1cc(C)c2ccccc2n1 | 40
37 | CC(C)(C)CC(=O)NC[C@H]1OC[C@@H](NC2CCCC2)[C@@H]1O | 7
38 | O=C(NC[C@H]1CCCO1)c1cc(C(=O)C2CC2)c[nH]1 | -8
39 | Cc1nc(NC(=O)c2ccn(COc3ccc(F)c(Cl)c3)n2)sc1C | -8
40 | CCn1ccnc1C(=O)Nc1ccc(OC)nc1 | 7
41 | CCOC(=O)N1CCN(C(=O)C2[C@H]3C(=O)N(c4ccc(OC)cc4)C[C@]34C=C[C@H]2O4)CC1 (some centres not stated) | 2
42 | O=C(O)c1cc(-c2ccc3c(c2)OCCO3)nc2c(Br)cc(Br)cc12 | 3
43 | CCOc1cccc(-c2ccc3nc(-c4cccc(OC)c4)c(CCC(=O)NCCN4CCCC4)n3c2)c1 | 31
44 | Cn1ccnc1CCNC(=O)C(=O)Nc1cc(F)c(F)c(F)c1 | -12
45 | Cn1c2ccc(Br)cc2c2cc(NS(=O)(=O)c3ccccc3)ccc21 | 3
46 | O=C(NCCc1cc(F)cc(F)c1)C1CC2CCC1C2 (configuration not stated) | 10
47 | COC(=O)C[C@H](CC(C)C)c1c(O)n[nH]c1C | -10
48 | COc1ccc(-c2nn3c([C@H]4CCCN(C)C4)nnc3s2)cc1Cl | 4
49 | c1cn(CCCOc2ccc3c(c2)OCO3)nn1 | 2
50 | Cn1nc(C2CC2)c2c(C(F)F)cc(-c3ccc4c(c3)OCO4)nc21 | 2
51 | CN(CC(=O)NCc1ccco1)c1nnc(N2CCCC2=O)s1 | 5
52 | O=C1CCc2cc(OS(=O)(=O)c3ccc(F)cc3)ccc2N1 | 9

Row | SMILES | % Inhibition [%]
53 | O=C1C[C@@H](C(=O)N2CCC3(CCCCC3)C2)CCN1 | 10
54 | CN(C(=O)[C@@H]1CCCN1C(=O)OC(C)(C)C)c1nccs1 | 0
55 | COc1ccc(-n2ncc(Oc3cccc(C)c3)c(Nc3cccc(C(=O)NCc4ccc(F)cc4)c3)c2=O)cc1 | 30
56 | Cn1cccc1CNCc1ccncc1 | 7
57 | CC(C)c1c2cc3c(cc2nn1-c1ccccc1)OCCO3 | -11
58 | NS(=O)(=O)c1ccc(CCNc2nc(-c3ccccc3)nc3ccccc23)cc1 | 5
59 | Oc1c(-n2cncn2)cnc2ncnn12 | 1
60 | COc1ccc(-c2c[n+](-c3ccc(Cl)cc3)c3n2CCCCC3)cc1 | 57
61 | COC(=O)[C@]1(C)CN(C(=O)NCc2cc(C#N)ccc2F)C[C@H]1C | 11
62 | Fc1ccc(-n2ncc3c(N4CCC[C@H]4c4cccs4)ncnc32)cc1 | 2
63 | CN1CCN(C2(CNc3ccnc4ccccc34)CCCC2)CC1 | 98
64 | CC(C)c1nn(C)cc1NS(=O)(=O)CCCC(F)(F)F | 8
65 | Cc1nc(-c2ccc(NCc3cc4ccccc4o3)nc2)[nH]c(=O)c1C | -12
66 | C[C@H]1CS(=O)(=O)C[C@H]1NC(=O)Nc1ccc2ccoc2c1 | 1
67 | C[C@H](Oc1ccccc1)C(=O)N1CCC(c2nc(-c3ccc4c(c3)OCO4)no2)CC1 | 10
68 | Cc1cccc(NC(=O)c2c(C)sc3ncnc(N4CCCCC4)c23)c1 | 9
69 | OCCN(Cc1nc2ccccc2o1)c1ccc(Br)cc1 | 1
70 | Cc1nn(Cc2ccccc2)c2c1C(c1cccc(Cl)c1Cl)c1c(C)nn(Cc3ccccc3)c1O2 | 9
71 | Cc1ccc(-c2noc(CCC(=O)NC3CCCCC3)n2)c(=O)n1C(C)C | 1
72 | c1cncc(OCc2cnc3ccccn23)c1 | -10
73 | C[C@H](N)c1ccc(Nc2ncc3cc(-c4ccncc4)ccc3n2)cc1 | 101
74 | O=C(O)C1C2CC2CN1C(=O)c1ccc(Cl)cc1Cl (configuration not stated) | -14
75 | CC(C)(C)c1cc(NC(=O)c2ccccc2F)n([C@H]2CCS(=O)(=O)C2)n1 | -7
76 | O=C(c1ccccc1)c1ccc(O)c(CN2CCCN(c3ccc(C(F)(F)F)cn3)CC2)c1O | 80
77 | N#Cc1cccc(CNC2CCCCCC2C(N)=O)c1 (configuration not stated) | 1
78 | Cc1cc(=O)[nH]c(-n2nc(C3CC3)cc2NC(=O)C(c2ccccc2)c2ccccc2)n1 | 87

Row | SMILES | % Inhibition [%]
79 | O=C(Nc1ccc(N2CCC(N3CCCCC3)CC2)cc1C(=O)O)c1ccccc1Cl | 10
80 | Oc1ccccc1-c1cnc(C(F)(F)F)s1 | 90
81 | O=S(=O)(c1ccccc1)N1CCN(S(=O)(=O)c2ccc(Cl)cc2)C1 | 11
82 | CC(C)(C)OC(=O)NS(=O)(=O)Nc1nccs1 | -14
83 | N#Cc1cccc(CNc2ccc3c(c2)CCC(=O)N3)c1 | -8
84 | O=C(Cc1ccc2oc(-c3cccnc3)nc2c1)N1CCN(c2cccc(C(F)(F)F)c2)CC1 | -8
85 | C[C@](O)(C(=O)NCC(=O)NC1CCCC1)c1ccc(F)cc1 | 8
86 | Cc1ccc(-c2ccnn2C)cc1NC(=O)[C@H]1CCCOC1 | 13
87 | O=C(CN1CCOCC1)N1CCN(CCCOc2ccccc2)CC1 | 9
88 | Cc1nc(CN2C(=O)C(=O)c3cc(Br)ccc32)cs1 | 9
89 | Cc1ccc(N2C[C@@H](c3nnc(N)o3)CC2=O)cc1 | 8
90 | Cc1ccc(N2CCCC2)c(C(=O)N2CCN(Cc3c(C)nc4cc(C)ccn34)CC2)c1 | 2
91 | COc1ccc(-[n+]2c(-c3ccc(-c4ccccc4)cc3)cn3c2COCC3)cc1 | 60
92 | CN1CCCN(c2ccc(NC(=O)c3cccc(Cl)c3)c(C(=O)O)c2)CC1 | -7
93 | N#Cc1cc(C(=O)N[C@H]2CCCOCC2)ccn1 | 2
94 | Cc1cc(C)n(-c2ccc(CN3C(=O)NC4(CCCC4)C3=O)cc2)n1 | 6
95 | CN(Cc1ccc(F)cn1)c1ccn(C)n1 | 8
96 | COc1cc(OC)cc(N2CCN(C(=O)c3cccc(F)c3)[C@@H](C)C2=O)c1 | -19
97 | Clc1cccc(-c2c[nH]c([C@@H]3COCCN3C3CCOCC3)n2)c1 | -16
98 | Cc1[nH]c2nc3ccccc3n2c(=O)c1Cc1ccccc1Cl | -15
99 | Cc1c(NS(=O)(=O)c2ccc(Cl)cc2)c(-n2cnnc2)nn1C | 1
100 | O=C(Nc1ccc(F)c(Cl)c1)c1ccn(COc2ccccc2Cl)n1 | -2
101 | Cn1ncc(Br)c1C(=O)N1CCc2ccccc2C1 | 12
102 | COc1ccc(-c2nccn3cc(C(=O)N4CCCCCC4)nc23)cc1 | 4
